# In paper PMC6919601, “Identification of Plasmodium dipeptidyl aminopeptidase allosteric inhibitors by high throughput screening” (PLoS ONE, 2019):
# About 230 (0.21%) of roughly 110,000 compounds showed an effect of 50% or more. The list shows a part of the results.
# Target: DPAP1 (Plasmodium falciparum, UniProt Q8IIJ9)
# Test: primary screen, percent inhibition; read by cleavage of a fluorogenic dipeptide substrate; higher = more effect of the substance
# Set-up: species or system P. falciparum D10 trophozoite lysates; single well
# 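Further: 30 min substrate incubation versus DMSO and 10 µM JCP410 controls.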
# Chain of DPAP1 (Q8IIJ9 whole entry, looked up): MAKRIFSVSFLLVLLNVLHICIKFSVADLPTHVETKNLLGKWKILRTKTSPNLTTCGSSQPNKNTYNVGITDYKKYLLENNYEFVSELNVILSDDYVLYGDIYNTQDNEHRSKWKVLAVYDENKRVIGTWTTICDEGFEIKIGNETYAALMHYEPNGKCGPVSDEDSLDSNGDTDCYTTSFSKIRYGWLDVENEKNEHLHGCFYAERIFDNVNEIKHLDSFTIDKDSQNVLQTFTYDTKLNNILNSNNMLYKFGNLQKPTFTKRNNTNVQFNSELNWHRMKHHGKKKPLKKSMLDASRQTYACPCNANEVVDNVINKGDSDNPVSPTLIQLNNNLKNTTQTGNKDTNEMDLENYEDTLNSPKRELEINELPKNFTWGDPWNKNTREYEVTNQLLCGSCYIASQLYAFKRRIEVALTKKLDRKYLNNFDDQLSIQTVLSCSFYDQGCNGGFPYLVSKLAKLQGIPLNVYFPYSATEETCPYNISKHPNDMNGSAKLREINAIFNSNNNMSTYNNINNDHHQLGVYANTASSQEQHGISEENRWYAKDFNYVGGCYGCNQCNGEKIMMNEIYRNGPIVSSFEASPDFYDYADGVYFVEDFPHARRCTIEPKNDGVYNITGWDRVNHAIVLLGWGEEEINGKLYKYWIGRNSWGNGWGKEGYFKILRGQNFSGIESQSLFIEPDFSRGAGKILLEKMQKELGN
row,Structure (SMILES),% Inhibition @ 10 uM [%]
1,COc1ccc(CNC(=O)C2CCCN(c3nc4ccccc4o3)C2)c(OC)c1 (centres unmarked),0.387
2,CN(C(=O)CSc1nncn2c1cc1sccc12)C1CCCCC1,-10.9
3,COC(=O)c1cn(C(=O)c2ccc(Cl)cc2Cl)c2ccccc12,-2.65
4,CCOc1ccc(CCNCc2c(C(=O)O)n(C)c3cc(OC)ccc23)cc1OCC,-2.68
5,O=C1OC(/C=C/c2cccc(Cl)c2Cl)=NC/1=C/c1ccc2c(c1)OCO2,9.52
6,OC(COc1cccc(OCC(O)CN2CCCCC2)c1)CN1CCCCC1 (centres unmarked),-1.6
7,COc1ccc(-c2nc(N3CCOCC3)nc3nn4c(C)cc(C)nc4c23)cc1,-3.27
8,Cc1ccc(C(=O)C2=C(O)C(=O)NC2c2ccccc2)cc1 (centres unmarked),-5.27
9,CCOC(=O)C(O)(c1ccc(C2CC2C2CC2)o1)C(F)(F)F (centres unmarked),0.962
10,CCOc1ccc2c(c1)c(C(C)=O)c(C)n2CCc1ccccc1,-3.28
11,CCOc1ccc(N2CN=C3SCC(=O)N3C2)cc1,-3.77
12,COC(=O)c1cccc(Oc2ccc([N+](=O)[O-])cc2)c1,4.42
13,CCc1c(O)n(C2CCCCC2)c(SCc2ccccc2)nc1=O,0.815
14,CSc1ccc(-c2nnn(CC(=O)NCc3ccccc3)n2)cc1,2.57
15,CN1C(=O)c2ccccc2C(C(=O)NCCc2ccc(Cl)cc2)C1c1cccs1 (centres unmarked),-2.4
16,COC(=O)c1ccc(OCC2c3cc(OC)c(OC)cc3CCN2C(=O)Cc2ccc(F)cc2)cc1 (centres unmarked),2.21
17,CN1C(C(=O)Nc2cnn(C34CC5CC(CC(C5)C3)C4)c2)=CC(c2ccco2)=NS1(=O)=O,3.92
18,Cc1ccc(NC(=O)CN2CC(c3ccccc3)CC2=O)cc1C (centres unmarked),-10.5
19,Clc1ccc(OCCCCn2ccnc2)cc1,-4.3
20,CC(C)C[C@H](NC(=O)OCc1ccccc1)C(=O)N[C@H](C#N)Cc1c[nH]c2ccccc12,1.71
21,CCc1ccc(CN2CCCC(C(=O)N3CCCCC3)C2)cc1 (centres unmarked),2.04

row,Structure (SMILES),% Inhibition @ 10 uM [%]
1,N#Cc1ccc(NC(=O)CS(=O)(=O)Cc2ccccc2)cc1,3.62
2,O=C1C2C3C=CC(C3)C2C(=O)N1c1ccc(N2C(=O)C3C4C=CC(C4)C3C2=O)c(Cl)c1 (centres unmarked),2.13
3,CCc1noc(C(=O)[C@H](CC)NC(=O)[C@H](CC2CCCC2)NC2=NS(=O)(=O)c3ccccc32)n1,-4.82
4,COC(=O)c1cc(S(=O)(=O)NCc2cccnc2)c[nH]1,0.867
5,CC(=O)c1ccc(N/C=C/C(=O)c2ccc(Br)cc2)cc1,-6.87
6,COc1ccc(Cl)cc1NC(=O)CC1S/C(=N\C2CCCCC2)N(C)C1=O (centres unmarked),-2.58
7,O=C(CCn1ccc2cc(S(=O)(=O)N3CCCC3)ccc21)NC1CCCCCC1,4.65
8,C=CC1CN2CCC1CC2c1[nH]c2ccccc2c1CCO (centres unmarked),-2.85
9,CCOC(=O)c1[nH]c(C)c(C(=O)c2cccs2)c1C,-6.07
10,COC(=O)c1cc2ccsc2n1Cc1cccc(F)c1,-3.67
11,Cc1ccc2c(Cl)c(C(=O)NC3=NCCS3)sc2c1,0.726
12,CC(C)=CCC/C(C)=C/CN1CCN(c2ccccc2Cl)CC1,3.48
13,O=S(=O)(NCCc1nnc2ccc(SCc3cccnc3)nn12)c1ccccc1,-6.82
14,O=C(O)C1CSC(c2ccccc2Cl)N1C(=O)c1ccc(Cl)cc1 (centres unmarked),-1.16
15,Cc1nn(CC(=O)N2CCN(C(=O)c3ccco3)CC2)c(=O)c2cc3sccc3n12,0.137
16,O=C(NCCCN1CCOCC1)c1ccccc1Br,0.58
17,CC(C)CCNc1nc2c(c(=O)[nH]c(=O)n2C)n1CC(O)COC(C)C (centres unmarked),-8.72
18,O=C(NCCN1CCc2ccccc2C1)c1cc(-c2cccs2)nc2ccccc12,-6.54
19,CC1c2nc3ccccc3n2C(CC(=O)NCCc2ccc(Cl)cc2)C(=O)N1Cc1ccccc1 (centres unmarked),9.33
20,CCOc1ccc(CC(=O)Nc2cc(C)ccc2C)cc1OCC,1.27
21,O=C(NCc1cccnc1)c1ccc(Cl)cc1Cl,3.53

row,Structure (SMILES),% Inhibition @ 10 uM [%]
1,COC(=O)C1=C(C)N=C2SCCC(=O)N2C1c1ccc(Cl)cc1Cl (centres unmarked),-7.45
2,Cc1ccc2oc(=O)c3cnn(CC(=O)NCc4cccnc4)c3c2c1,-1.7
3,CC(=O)C(Cc1ccc(Cl)cc1)(Cc1ccc(Cl)cc1)C(C)=O,-3.94
4,CC(NC(=S)NC(=O)/C=C/c1ccc(F)cc1)C12CC3CC(CC(C3)C1)C2 (centres unmarked),-3.48
5,CCCC(=O)Nc1ccc(C(=O)Nc2ccc(Br)cc2F)cc1,-0.545
6,O=C(Nc1ccc2oc(-c3cccnc3)nc2c1)C(c1ccccc1)c1ccccc1,10.7
7,CC(=O)c1sc(N2C(=O)c3oc4ccccc4c(=O)c3C2c2ccccc2F)nc1C (centres unmarked),-0.828
8,CN(CC(=O)Nc1c2c(nc3c1CCC3)CCCC2)Cc1ccccc1,-2.65
9,O=C1CSc2ccc(C(=O)N3CCOCC3)cc2N1,-9.6
10,CSC(=O)NC12CC3CC(C1)CC(C(=O)O)(C3)C2,0.215
11,COc1ccc(NC(=O)c2ccc(C(=O)Nc3ccc(OC)cc3OC)nc2)c(OC)c1,5.15
12,CCN(CC)C(=O)Cn1cc(C=C2C(=O)N(C)C(=O)N(C)C2=O)c2ccccc21,-1.26
13,CCOc1cc(/C=C2/SC(=O)N(CC(=O)Nc3ccccc3)C2=O)ccc1O,5.44
14,COc1cccc(C2C(C#N)=C(N)OC3=C2C(=O)CC(C)(C)C3)c1OC (centres unmarked),1.37
15,COc1cccc(-n2c(/C=C/c3ccc(O)cc3)nc3ccccc3c2=O)c1,-0.865
16,O=C(O)C1Nc2ccc3ccccc3c2C2C=CCC12 (centres unmarked),14.8
17,Cc1ccc(-n2nnc3c(=O)n(CC(=O)NC4CCCC4)cnc32)cc1,-9.69
18,Cc1nc2ccc(S(=O)(=O)NC(CC(C)C)C(=O)N3CCCCCC3)cc2s1 (centres unmarked),-3.33
19,C=C(C)CN(CC)Cc1ccc([N+](=O)[O-])s1,-3.57
20,Fc1ccccc1NCn1cnc2ccccc21,-3.52
